Data from PubChem BioAssay AID1745853 (National Center for Advancing Translational Sciences (NCATS), 2022).
Values joined by “and” are separate entries in the source; they are usually repeats but may differ in a detail not shown here. Equal entries are not always repeated. This is one part of the list. Further columns of the screen follow, without active or inactive calls.

Key:
Experiment in all cases: Primary Screen for Target Class Profiling of Small Molecule Inhibitors of Methyltransferases
[1] = target: Glycine N-methyltransferase (Homo sapiens) (UniProt Q14749); settings: purified enzyme, MTase-Glo SAH luminescence; measured here: GNMT inhibition; at 40 µM; stronger effect = lower value
Outline: (§1)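 Each enzyme was assayed with SAM and its substrate. SAH formation detected by MTase-Glo luminescence; single-point 40 uM screen[…].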

[2] = target: Guanidinoacetate N-methyltransferase (Homo sapiens) (UniProt Q14353); settings: purified enzyme, MTase-Glo SAH luminescence; measured here: GAMT inhibition; at 40 µM; stronger effect = lower value
Outline: as §1

[3] = target: Histamine N-methyltransferase (Homo sapiens) (UniProt P50135); settings: purified enzyme, MTase-Glo SAH luminescence; measured here: HNMT inhibition; at 40 µM; stronger effect = lower value
Outline: as §1

[4] = target: Nicotinamide N-methyltransferase (Homo sapiens) (UniProt P40261); settings: purified enzyme, MTase-Glo SAH luminescence; measured here: NNMT inhibition; at 40 µM; stronger effect = lower value
Outline: as §1

[5] = target: Phenylethanolamine N-methyltransferase (Homo sapiens) (UniProt P11086); settings: purified enzyme, MTase-Glo SAH luminescence; measured here: PNMT inhibition; at 40 µM; stronger effect = lower value
Outline: as §1
On the % scale 0 is the no-effect control and ±100 the full control effect.

Row | Compound | activity change, negative = inhibition [1] | activity change, negative = inhibition [2] | activity change, negative = inhibition [3] | activity change, negative = inhibition [4] | activity change, negative = inhibition [5]
1 | O=C(O)c1cccc(-c2noc(-c3ccccc3F)n2)c1 | -19.7% | -22.3% | -8.39% | -26.1% | -12.5%
2 | Nc1ccc(S(=O)(=O)Nc2nccs2)cc1 | 2.25% | 5.65% | 4.23% | -9.71% | 0.592%
3 | O=C(NCCc1ccco1)c1cc2n(n1)CCCN(Cc1ccc(Cl)cc1)C2=O | -8.97% | 0% | 0.677% | -3.38% | -0.932%
4 | CNCC(O)c1ccc(O)c(O)c1 (stereo not given) | -9.05% | 5.2% | 1.87% | -7.92% | -26.3%
5 | CN1CCC(c2cn(C)c3ccc(OS(=O)(=O)c4c(F)cccc4F)cc23)CC1 | -3.28% | 5.08% | -6.77% | -19.3% | 3.04%
6 | CCS(=O)(=O)N1CCC(c2noc(COc3ccc(F)cc3)n2)C1 (stereo not given) | -3.73% | -5.03% | -0.124% | -8.2% | -5.88%
7 | c1cc(CN2CCCCC2)cc(OCCCNc2nc3ccccc3s2)c1 | -3.17% | 7.44% | -53.3% | -14.7% | 4.16%
8 | CC(=O)O[C@H]1C[C@@](O)(C(C)C)C2[C@@H](OC(=O)c3ccc(O)cc3)C[C@@]3(C)O[C@H]3C[C@]21C (stereo not given in full) | -1.08% | 2.23% | 0.681% | -12.2% | -7.74%
9 | CCn1c2ccccc2c2cc(CNC)ccc21 | 5.27% and 11.5% | -2.83% and 8.47% | -39.7% and -23.5% | -17.6% and -6.75% | -15.3% and 1.01%
10 | COc1ccc(F)cc1-c1ccc(CN2CCC(N[S+](=O)([O-])c3cccs3)C2)cc1 (stereo not given) | -2.38% | -6.12% | -18.6% | -6.46% | -13.9%
11 | CCC(O)CNC(=O)c1cn2cc(-c3ccc(F)cc3)n(CC=C(C)C)c(=O)c2n1 (stereo not given) | -14.3% | -2.51% | -2.13% | -11.5% | 4.13%
12 | CCCn1c(=O)c2ccc(C(=O)NCC(C)C)cc2n2c(SCC(=O)c3ccc(F)cc3)nnc12 | 7.43% | 0.134% | 5.58% | 8.29% | 8.53%
13 | COc1ccc(CNC(=O)C2(C)Cn3cnc(C(=O)Nc4ccc(C)cc4)c3C(=O)N2C2CC2)cc1 (stereo not given) | 1.22% | 0% | 12.4% | 2.73% | 4.81%
14 | O=C(CSc1nnc2n(CCc3ccccc3)c(=O)c3ccccc3n12)Nc1ccc(F)cc1 | 1.4% | 0% | 5.56% | -4.53% | 2.39%
15 | O[C@@H]1C[C@@H](c2nc(Cc3ccc(F)cc3Cl)no2)N(Cc2ccco2)C1 | -7.25% | 0.286% | -1.46% | 5.19% | 1.74%
16 | Cc1ccc(-c2nnn3c2nc(NCCc2c[nH]c4ccccc24)c2ccccc23)cc1 | -0.099% | 4.51% | -0.368% | 8.8% | -1.86%
17 | Cn1ccc(C(=O)N2CCC3(CC2)CC(=O)N(C/C=C/c2ccccc2)C3)n1 | -5.56% | -7.42% | -3.09% | -8.21% | -6.66%
18 | O=C(c1ccccc1)N1CCC2(CC(Cc3ccccc3)=NO2)C1 (stereo not given) | -6.73% | -8.66% | -3.85% | -12.1% | -10.3%
